Data reported in the supplement of paper PMC10126150.
Values marked as one replicate rest on one cluster of the flow cell; about a third of the high ones do not repeat.

Tested on: ATP
Assay: switch fluorescence ratio, 500 uM ATP over buffer (Cy3 cluster intensity, sum of 5 cycles each) (fold (ratio)); higher = stronger signal-on switching upon ATP binding; sequences stand for … in TCGTCGGCAGCGTCAGATGTGTATAAGAGACAGTTTTTTTTTTTTTTTTTTTTTTTTT…TC
Settings: aptamer strand: ATP DNA aptamer (quencher-CACCTGGGGGAGTATTGCGGAGGAAGG + anchor), 100 nM annealed; ATP concentration: 500 uM; one replicate
Outline: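 The fluorescence ratio divides summed target-cycle Cy3 intensity by summed buffer-cycle Cy3 intensity for each cluster and is averaged per switch-domain sequence. Cy3-labelled switching-strand clusters on a modified Illumina MiSeq flow-cell were annealed to 100 nM quencher-labelled ATP aptamer, then imaged in selection buffer and again after 15 min with 500 uM ATP at 22 °C. Five such cycles were run, with NaOH stripping and re-annealing between them, and clusters outside 100-1000 RFU were excluded.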
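Further: ATP exposure 15 min at 22 °C before imaging.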

| Sequence | switch fluorescence ratio |
| --- | --- |
| AATTTTCGGT | 0.99 |
| TCAGGGACCA | 1.04 |
| AACTATCTAA | 1 |
| CTATTCATAT | 1.05 |
| GCCCGGTAAG | 1.02 |
| TATCGGACC | 1.15 |
| GCTAGACAGA | 1.04 |
| CCGCGCTGTG | 1.14 |
| AATTAGCGGA | 1.01 |
| ATTCAGATTC | 1.02 |
| GGTTGTTA | 0.952 |
| TAATGGCTAT | 0.976 |
| ATGTTATT | 0.962 |
| CTCTGAGTA | 1.04 |
| TTTAGCTAG | 1.04 |
| AGCAGCATAA | 1.31 |
| CATGCTGAGG | 0.979 |
| GCATAAGGA | 0.974 |
| CCCAACATCG | 1.04 |
| AGTCGTTCGG | 1 |
| ACCGCTGTGC | 2.99 |
| GTAGTCGGGA | 1.01 |
| AACAGCAACC | 1.53 |

| Sequence | switch fluorescence ratio |
| --- | --- |
| ACTCTGGCCT | 1.13 |
| ACGGAAATAC | 3.04 |
| GAATCGCTCC | 1.16 |
| GTGATATAGT | 0.96 |
| CTAGGTCGCC | 1.01 |
| GCAGGTTATG | 1 |
| CTACTGACGT | 1.31 |
| GGATTCTCGG | 1.02 |
| GAGGGCTCGG | 0.985 |
| GGTAGCCCCG | 1.01 |
| GCAGTTCTAT | 0.988 |
| TGAGATCCG | 1.02 |
| TATGTGGTCG | 1 |
| CTGTCACTTC | 1.01 |
| TATAGCAAGG | 1.01 |
| AAGTCAGAAA | 1.02 |
| TGTGTCGTTC | 1.06 |
| GCTACTTTCC | 2.03 |
| AGAGCATAAA | 1.06 |
| ACAATAAATG | 1.04 |
| GGACAGATGC | 1.11 |
| GGGTGACACA | 0.89 |
| AGGTTATTAC | 1.05 |

| Sequence | switch fluorescence ratio |
| --- | --- |
| CAATAATAAT | 1.02 |
| CTAGTGGTCC | 1.02 |
| GGTACCCGTC | 0.976 |
| ACACTAATTG | 0.973 |
| CAGAATTTTC | 0.968 |
| CCGTGCACCT | 1.13 |
| TCTCGCCTGA | 1.02 |
| GGCCGGGCGC | 1.01 |
| TGTTACAGGC | 0.946 |
| TAGAAGGTCA | 1 |
| AAGTTGCTGA | 0.989 |
| GACTGGACTA | 1.16 |
| GCTAAGGGTA | 1.01 |
| AGACAGCTTC | 1.02 |
| CCGCGAAAT | 3.35 |
| ACAAGAGGAG | 1.03 |
| ACTTCAGGTC | 1.02 |
| ATTCCCTTAT | 0.97 |
| CCAGTCTGTT | 1.02 |
| TCTGAACCGT | 1.04 |
| AATGTGCGGA | 1.02 |
| GATCGCATCG | 1.07 |
| TGTTGGTATC | 0.998 |

| Sequence | switch fluorescence ratio |
| --- | --- |
| TTCAAATTAC | 1.25 |
| TTGTGAACGG | 0.972 |
| GATATATCG | 1 |
| CTAGGGCAGA | 1.04 |
| CGGCCCAA | 1.71 |
| GCCCTGAGGC | 1.09 |
| CGCATTCTCG | 2.55 |
| AGGAAATCGC | 0.993 |
| GCCGGAGGAT | 0.993 |
| GGTTATGTTT | 0.995 |
| TTCCTAGCGA | 1.15 |
| CTTACTTT | 1.03 |
| AGGGTTTTGC | 0.977 |
| TTTCATTAAG | 1.02 |
| CTAAGGATGG | 1.01 |
| CCCGGGGCCT | 0.951 |
| GGGATGCAAT | 0.982 |
| TCAAGTAATG | 1.03 |
| ATTTATAAT | 1 |
| GGGTTTGGCC | 0.981 |
| CGCTCTCCAC | 2.27 |
| GCAATGTGG | 1.04 |
| TTGTTTTAT | 0.981 |

| Sequence | switch fluorescence ratio |
| --- | --- |
| ATCTAATTCT | 1.05 |
| GACTTGTGCG | 1.02 |
| TAACGACGTG | 1.01 |
| TATGCCTATG | 0.98 |
| AATATTCCTA | 1.01 |
| CAAAAACCAA | 1.11 |
| GTGGCCTTAC | 1.16 |
| CACGAGGGA | 1.01 |
| GCACGACTGA | 1.06 |
| AACGCGGGTG | 1.06 |
| AACCCGAAAG | 1.02 |
| TCACTGGTGG | 1.01 |
| CAAGGGGTAT | 0.983 |
| TCCATCTACT | 1.02 |
| TTGGTCGACC | 1.11 |
| TTGCAGGATG | 0.949 |
| GCGTACGGGG | 0.988 |
| CAGCGCTAAG | 0.981 |
| GACAGGGAGG | 0.96 |
| TGCGTTTTCC | 1.01 |
| CGGTGGTCTG | 1.03 |
| GTCGGGGATG | 0.99 |
| ATAACTACTG | 1.17 |

| Sequence | switch fluorescence ratio |
| --- | --- |
| GCAGCGAGAG | 2.31 |
| ATGGAAAACC | 1.05 |
| TCTGCATACG | 1.97 |
| GCATAACTTC | 1.16 |
| CGTGTAAATT | 0.978 |
| ACCTGGGAG | 0.98 |
| AACACGCGGC | 1.09 |
| AACACCAAAG | 1.04 |
| GCGTAAAATG | 1.2 |
| CACAGGCTCG | 1 |
| ATATTTTTTC | 1.01 |
| AATGATAGGT | 1.03 |
| CAAACCGCAG | 2.08 |
| GGAGTTCATT | 0.98 |
| GATGCAAAAA | 0.939 |
| CCCTGGAGGG | 0.964 |
| AAATTACACA | 1 |
| ATGTATGTAC | 1.11 |
| CCCTCGAGGG | 0.989 |
| GTATATTAAG | 1.01 |
| ATCGGCACAC | 2 |
| CATTGAGGCT | 0.989 |
| AGTTGGTACC | 0.996 |

| Sequence | switch fluorescence ratio |
| --- | --- |
| ACACTGGTGA | 1.19 |
| ATAAGGTCAG | 1 |
| AGTAGATCAA | 1.05 |
| GGTACAAGGT | 0.988 |
| AGTCCACTCC | 1.1 |
| AGGTAAACAG | 0.971 |
| GTAGTGGGCT | 0.996 |
| TTTCTGAGA | 0.983 |
| ATGAGGCAGA | 1.06 |
| GACATAGCAG | 1.21 |
| CGTTAAATCA | 1.02 |
| CAGGGCTTGT | 1.01 |
| GGATTATACG | 1.04 |
| AAAGGCTTAG | 1.02 |
| ATTGCAGCGT | 1.04 |
| AGGCAGGCGA | 1.04 |
| CGGACGAGGG | 1.02 |
| GGCGTTTGTT | 0.966 |
| CCTCGCCAGA | 2.06 |
